Assay results from the supplement of paper PMC4967469.
By IC50 is meant the dose at which the fit gives 50% viability; a fit beyond the top or the lowest dose is shown as a bound at that dose. The AUC spans the tested range (256-fold, ending at the top dose) of the same fit; the more sensitive the line, the further below 1. The top dose, if marked as inferred, is not printed in the source and was worked back from the curve model.

Columns and labels:
[1] = compound: O=C(/C=C/c1cccnc1)NCCCCC1CCN(C(=O)c2ccccc2)CC1 [FK866]; experiment: Viability of human cancer cell lines after 72 h of drug (GDSC screen); conditions: top dose 1 µM; top dose inferred
Description: (§1)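 Human cancer cell lines in 384-well plates, medium with 10% serum, drug for 72 h over a 256-fold dose range (nine 2-fold or five 4-fold steps up to the top dose). Adherent lines were fixed and stained with the nucleic acid dye Syto60, suspension lines read with resazurin; signal relative to control wells, capped at 0 and 100%. One two-parameter sigmoid per drug and line, fitted in a mixed model over all curves with the slope shared within a line.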

[2] = compound: Nc1[nH]nc2nnc(-c3c(-c4ccccc4)nn4ccccc34)cc12 [FR-180204]; experiment: as above; conditions: top dose 20 µM; top dose inferred
Description: as §1

| Cell Line | AUC [1] | IC50 [1] [nM] | AUC [2] | IC50 [2] [nM] |
| --- | --- | --- | --- | --- |
| HCC1806 (breast, adherent) | 0.324 | 21.1 | 0.968 | > 20000 |
| HCC1937 (breast, adherent) | 0.948 | > 1000 | 0.978 | > 20000 |
| HCC1954 (breast, adherent) | 0.945 | > 1000 | 0.984 | > 20000 |
| HCC2157 (breast, suspension) | 0.297 | 16.3 | 0.987 | > 20000 |
| HCC2218 (breast, suspension) | 0.573 | 104 | 0.971 | > 20000 |
| HCC2998 (large intestine, adherent) | 0.364 | 26.6 | 0.988 | > 20000 |
| HCC-15 (lung squamous cell carcinoma, adherent) | 0.979 | > 1000 | 0.978 | > 20000 |
| HCC-44 (lung adenocarcinoma, adherent) | 0.376 | 28.7 | 0.985 | > 20000 |
| HCC-56 (large intestine, adherent) | 0.986 | > 1000 | 0.987 | > 20000 |
| HCC-78 (lung adenocarcinoma, adherent) | 0.667 | 199 | 0.98 | > 20000 |
| HCC-827 (lung adenocarcinoma, adherent) | 0.905 | > 1000 | 0.889 | > 20000 |
| HCE-4 (oesophagus, adherent) | 0.281 | 16.7 | 0.992 | > 20000 |
| HCT-15 (large intestine, adherent) | 0.724 | 283 | 0.971 | > 20000 |
| HCT-116 (large intestine, adherent) | 0.038 | < 3.91 | 0.975 | > 20000 |
| HD-MY-Z (Hodgkin lymphoma, adherent) | 0.093 | < 3.91 | 0.965 | > 20000 |
| HDLM-2 (Hodgkin lymphoma, suspension) | 0.077 | < 3.91 | 0.989 | > 20000 |
| HDQ-P1 (breast, adherent) | 0.935 | > 1000 | 0.955 | > 20000 |
| HEC-1 (endometrium, adherent) | 0.179 | 7.09 | 0.989 | > 20000 |
| HEL (acute myeloid leukaemia, semi-adherent) | 0.068 | < 3.91 | 0.969 | > 20000 |
| HGC-27 (stomach, adherent) | 0.017 | < 3.91 | 0.989 | > 20000 |
| HH (T-cell leukaemia, suspension) | 0.067 | < 3.91 | 0.946 | > 20000 |
| HL-60 (acute myeloid leukaemia, suspension) | 0.187 | 8.28 | 0.956 | > 20000 |
| HLE (liver, adherent) | 0.108 | < 3.91 | 0.98 | > 20000 |
| HMV-II (melanoma, adherent) | 0.642 | 170 | 0.967 | > 20000 |
| HN (head and neck, adherent) | 0.194 | 8.3 | 0.989 | > 20000 |

| Cell Line | AUC [1] | IC50 [1] [nM] | AUC [2] | IC50 [2] [nM] |
| --- | --- | --- | --- | --- |
| HO-1-N-1 (head and neck, adherent) | 0.406 | 35.3 | 0.978 | > 20000 |
| HO-1-u-1 (head and neck, adherent) | 0.71 | 237 | 0.973 | > 20000 |
| HOP-62 (lung adenocarcinoma, adherent) | 0.287 | 15.7 | 0.985 | > 20000 |
| HOP-92 (large cell lung carcinoma, adherent) | 0.784 | 496 | 0.973 | > 20000 |
| HOS (osteosarcoma, adherent) | 0.044 | < 3.91 | 0.992 | > 20000 |
| HPAC (pancreas, adherent) | 0.968 | > 1000 | 0.965 | > 20000 |
| HPAF-II (pancreas, adherent) | 0.784 | 571 | 0.927 | > 20000 |
| HSC-2 (head and neck, adherent) | 0.987 | > 1000 | 0.983 | > 20000 |
| HSC-3 (head and neck, adherent) | 0.197 | 9.41 | 0.99 | > 20000 |
| HSC-4 (head and neck, adherent) | 0.255 | 9.59 | 0.963 | > 20000 |
| HSC-39 (stomach, suspension) | 0.027 | < 3.91 | 0.988 | > 20000 |
| HT55 (large intestine, adherent) | 0.969 | > 1000 | 0.987 | > 20000 |
| HT (B-cell lymphoma, suspension) | 0.042 | < 3.91 | 0.99 | > 20000 |
| HT-3 (cervix, adherent) | 0.433 | 40.8 | 0.987 | > 20000 |
| HT-29 (large intestine, adherent) | 0.217 | 9.32 | 0.914 | > 20000 |
| HT-115 (large intestine, adherent) | 0.785 | 386 | 0.99 | > 20000 |
| HT-144 (melanoma, adherent) | 0.414 | 35.3 | 0.975 | > 20000 |
| HT-1080 (fibrosarcoma, adherent) | 0.053 | < 3.91 | 0.989 | > 20000 |
| HT-1197 (bladder, adherent) | 0.79 | 538 | 0.981 | > 20000 |
| HT-1376 (bladder, adherent) | 0.672 | 207 | 0.985 | > 20000 |
| HTC-C3 (thyroid, adherent) | 0.656 | 179 | 0.947 | > 20000 |
| HUTU-80 (digestive system, adherent) | 0.991 | > 1000 | 0.982 | > 20000 |
| HeLa (cervix, adherent) | 0.191 | 7.93 | 0.987 | > 20000 |
| Hey (ovary, adherent) | 0.032 | < 3.91 | 0.979 | > 20000 |
| Hs633T (fibrosarcoma, adherent) | 0.362 | 28.1 | 0.99 | > 20000 |

| Cell Line | AUC [1] | IC50 [1] [nM] | AUC [2] | IC50 [2] [nM] |
| --- | --- | --- | --- | --- |
| Hs683 (glioma, adherent) | 0.986 | > 1000 | 0.98 | > 20000 |
| Hs746T (stomach, adherent) | 0.792 | 638 | 0.981 | > 20000 |
| Hs766T (pancreas, adherent) | 0.872 | > 1000 | 0.984 | > 20000 |
| Hs939-T (melanoma, adherent) | 0.851 | 883 | 0.96 | > 20000 |
| Hs940-T (melanoma, adherent) | 0.797 | 589 | 0.98 | > 20000 |
| Hs-445 (Hodgkin lymphoma, suspension) | 0.988 | > 1000 | 0.98 | > 20000 |
| Hs-578-T (breast, adherent) | 0.982 | > 1000 | 0.987 | > 20000 |
| HuCCT1 (biliary tract, adherent) | 0.626 | 146 | 0.95 | > 20000 |
| HuH-7 (liver, adherent) | 0.986 | > 1000 | 0.987 | > 20000 |
| HuO9 (osteosarcoma, adherent) | 0.977 | > 1000 | 0.984 | > 20000 |
| HuO-3N1 (osteosarcoma, adherent) | 0.888 | > 1000 | 0.972 | > 20000 |
| HuP-T3 (pancreas, adherent) | 0.818 | 731 | 0.93 | > 20000 |
| IA-LM (large cell lung carcinoma, adherent) | 0.923 | > 1000 | 0.971 | > 20000 |
| IGR-37 (melanoma, adherent) | 0.493 | 59.9 | 0.953 | > 20000 |
| IHH-4 (thyroid, semi-adherent) | 0.024 | < 3.91 | 0.988 | > 20000 |
| IM-95 (stomach, adherent) | 0.633 | 149 | 0.948 | > 20000 |
| IMR-5 (neuroblastoma, adherent) | 0.02 | < 3.91 | 0.991 | > 20000 |
| IPC-298 (melanoma, adherent) | 0.472 | 52.6 | 0.981 | > 20000 |
| IST-MEL1 (melanoma, adherent) | 0.364 | 24.4 | 0.981 | > 20000 |
| IST-MES1 (mesothelioma, adherent) | 0.932 | > 1000 | 0.974 | > 20000 |
| IST-SL1 (small cell lung carcinoma, semi-adherent) | 0.086 | < 3.91 | 0.982 | > 20000 |
| J82 (bladder, adherent) | 0.949 | > 1000 | 0.988 | > 20000 |
| JAR (urogenital system, adherent) | 0.373 | 28.1 | 0.984 | > 20000 |
| JEG-3 (urogenital system, adherent) | 0.115 | 4.29 | 0.99 | > 20000 |
| JHH-1 (liver, adherent) | 0.983 | > 1000 | 0.908 | > 20000 |

| Cell Line | AUC [1] | IC50 [1] [nM] | AUC [2] | IC50 [2] [nM] |
| --- | --- | --- | --- | --- |
| JHH-2 (liver, adherent) | 0.946 | > 1000 | 0.971 | > 20000 |
| JHH-4 (liver, adherent) | 0.771 | 383 | 0.94 | > 20000 |
| JHH-6 (liver, adherent) | 0.831 | 645 | 0.979 | > 20000 |
| JHH-7 (liver, adherent) | 0.098 | < 3.91 | 0.985 | > 20000 |
| JHOS-2 (ovary, adherent) | 0.426 | 38 | 0.927 | > 20000 |
| JHOS-3 (ovary, adherent) | 0.951 | > 1000 | 0.933 | > 20000 |
| JHU-022 (head and neck, adherent) | 0.462 | 47.9 | 0.982 | > 20000 |
| JIMT-1 (breast, adherent) | 0.342 | 21.9 | 0.982 | > 20000 |
| JJN-3 (haematopoietic neoplasm, suspension) | 0.053 | < 3.91 | 0.985 | > 20000 |
| JM1 (B-cell lymphoma, suspension) | 0.022 | < 3.91 | 0.985 | > 20000 |
| JURL-MK1 (chronic myeloid leukaemia, suspension) | 0.049 | < 3.91 | 0.882 | > 20000 |
| JVM-2 (lymphoid neoplasm, suspension) | 0.065 | < 3.91 | 0.974 | > 20000 |
| JVM-3 (lymphoid neoplasm, suspension) | 0.118 | < 3.91 | 0.967 | > 20000 |
| JiyoyeP-2003 (Burkitt lymphoma, suspension) | 0.231 | 11.7 | 0.988 | > 20000 |
| K2 (melanoma, adherent) | 0.835 | 949 | 0.923 | > 20000 |
| K5 (thyroid, adherent) | 0.356 | 25.5 | 0.954 | > 20000 |
| K-562 (chronic myeloid leukaemia, suspension) | 0.04 | < 3.91 | 0.942 | > 20000 |
| KALS-1 (glioma, adherent) | 0.714 | 320 | 0.974 | > 20000 |
| KARPAS-45 (lymphoblastic leukaemia, suspension) | 0.958 | > 1000 | 0.95 | > 20000 |
| KARPAS-299 (anaplastic large cell lymphoma, suspension) | 0.329 | 22.9 | 0.992 | > 20000 |
| KARPAS-422 (B-cell lymphoma, suspension) | 0.129 | 4.23 | 0.979 | > 20000 |
| KARPAS-620 (haematopoietic neoplasm, suspension) | 0.078 | < 3.91 | 0.986 | > 20000 |
